# Source: the supplement of paper PMC11417369
# ± gives the standard deviation of the averaged measurements. The list shows a part of the results.
# Tested on: PfAP2-G AP2 domain (GST-tagged)
# Assay: gcPBM binding intensity (ln(normalized median fluorescence intensity)); higher = stronger DNA binding
# Procedure, shortened: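 In this array assay, P. falciparum DNA-binding domains with a GST tag, expressed in E. coli, were applied for 1 h to primer-extended double-stranded 36-bp intergenic genomic probes and negative controls on an Agilent 4 × 180k array. Bound protein was visualised with Alexa488 anti-GST antibody at 488 nm. Binding intensity is the highest Masliner-normalised natural-log median intensity across replicate spots of either probe orientation.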
row,Sequence,gcPBM binding intensity (ln)
1,AAAACTATTAAATGTAGTACATAATTATTGAAATAA [XGTACX_site8716],11.6 ± 0.91
2,AAATACATATCATGTAGTACATATATATGTAGGTTA [XGTACX_site5392],11.3 ± 0.85
3,ACTTTACGAATTAAGAGTACTTATTTAAGGAACACT [XGTACX_site7919],11.4 ± 0.9
4,TGTTGTATTTTTACAACACACATTTAATCCATTTAA [CACACA_site1507],10 ± 0.27
5,CTTATATATTGGGATAGTACTTTTAACTAAATAGAA [XGTACX_site5900],11.1 ± 0.67
6,TTTGAAAAGTTGAAATGTACACATTTACACATATTT [XGTACX_site1641],11.2 ± 0.86
7,TTTTTATTGAGATACTTATATAATTTTATGAATAAA [XGTACX_negctrl_site311],10 ± 0.3
8,TTTTTTTGCTCTTTTTATATATATATATATATATAT [GTGCAC_negctrl_site70],10.1 ± 0.33
9,TATATATATAAAATATGTACATAAAATTATTTATTT [XGTACX_site7666],11.4 ± 0.78
10,AAAGTTTAAATGAGAAGTACAAATTTTTGTTTTTAT [XGTACX_site1844],11.1 ± 0.55
11,ATGTTAACTAAATGTACACACCTATGTTGATGTAAC [CACACA_site5073],11.3 ± 0.97
12,GTAATACACATATAATGTACTCATAAATATATTTAT [XGTACX_site4041],11.4 ± 0.98
13,TCATAGGAGAACTTTTGTACAGATTTTTCTTTTTTT [XGTACX_site2853],10.7 ± 0.28
14,ATATAAAGTATGTTAGTGCACTTTTTTTTTTTTTTT [GTGCAC_site9419],10.8 ± 0.59
15,CAAAGAACTTATAGGGTGCTTTACTTATAAGTAAAT [GTGCAC_site9579],10.06 ± 0.064
16,AATTTTATATATATATGTACATATTTATATGCTTAT [XGTACX_site8180],11.1 ± 0.66
17,AATATAAGTGTACATACACACTTTACAATATCATAT [CACACA_site5634],11.5 ± 1
18,TTTCTATATCTTTCAACACACAAATTTTTTTTTCCA [CACACA_site108],9.85 ± 0.14
19,ACATACATACCCCCACGTACGTACCGAAACACCACC [XGTACX_site1982],11.5 ± 0.74
20,GTGGTTGTAATGGTGGTGCATATTGTATATTATGTT,10.9 ± 0.58
21,GTTTATTCTTTTTATACACACCTTATTTGATTAACA [CACACA_site4567],10.06 ± 0.049
22,TATACATAGAAACACACACACATATATATATATATA [CACACA_site2248],10.1 ± 0.37
23,TTTATTTATGTAGATACACACCCATGTTATATGGAG [CACACA_site9144],10.1 ± 0.11

row,Sequence,gcPBM binding intensity (ln)
1,TTCTAATATTTTTGCACACTAAACAATAAATTTCCT [CACACA_site3944],10.2 ± 0.23
2,TGTGAATAAATAAGCACACATAAACACATATATAAA [CACACA_site6114],10.075 ± 0.007
3,TTAAAAGAAAAAATATGTACATATATTATATATATC [XGTACX_site7009],11.2 ± 0.61
4,TTACTACTATATTATACACACATATATATATATATA [CACACA_site2621],10.2 ± 0.4
5,GCAACATTCTAAGACACACACACACCCATATATATA [CACACA_site1053],10.2 ± 0.26
6,AATGATGTCATAGGGGGTACACATAAATGTGAATGT [XGTACX_site6745],11.5 ± 0.95
7,ATATTAATAATATATACACACATAAGTATTGTATAT [CACACA_site4095],9.905 ± 0.064
8,AGCAAAAATTAAATAAATAAATATATATATATATAT [TGCATGCA_negctrl_site449],9.85 ± 0.14
9,AATAATATATATATATATATATATAGATATGTATAT [GTGCAC_negctrl_site653],9.54 ± 0.042
10,TTTTTTTTTTTTTTTACACACATTTTAATAATTTTA [CACACA_site1492],9.71 ± 0.45
11,TTGTAAAAAATTCATACACACGTCTTATTTTTAAGA [CACACA_site8390],9.895 ± 0.007
12,ATTTTTTCTAAAAGTTGTACATTAAAACGTGTTCAC [XGTACX_site4803],11.5 ± 0.91
13,AGTTTTATATTTCTGAGTACTTATGAATCTAGCTCG [XGTACX_site4330],11.2 ± 0.72
14,AAGACTCTTTGTCCTTGTACATATATTTTTATGTTT [XGTACX_site3711],11.1 ± 0.69
15,TTTATATAATATGAATGTACTTATATATTTATAGAC [XGTACX_site3261],11.2 ± 0.88
16,AAAATGAATTTAAAATGTACTTTTTCTAAAGAGTAA [XGTACX_site2337],11.3 ± 0.88
17,TTATAGGTGCTTCGTAGTACATAAAAATAATATATA [XGTACX_site6979],11.1 ± 0.79
18,TATTTATTCTCCAACACACACACATATATATATATA [CACACA_site2894],10.2 ± 0.2
19,TATAAGTGCTCAACGGTGCATTTATAGAAGTTAAAC,10 ± 0.16
20,TATAAAATAAAAAATATATATATGTATATATATATA [TGCATGCA_negctrl_site163],9.74 ± 0.73
21,ATTATTTTATATACATGTACATATTATATATAAAAG [XGTACX_site2735],11.2 ± 0.74
22,TATAATTTTTACTGGGTGCACTCGATATTTTAAATA,10.7 ± 0.62
23,TAAATGTAAAACGAAATGCACACTATGGAAAATATA [CACACA_site724],10.19 ± 0.028

row,Sequence,gcPBM binding intensity (ln)
1,CACACTTTTTAAATTAACGCATTTCAAAAAAAATAT [CACACA_negctrl_site84],10.09 ± 0.092
2,TATTTATACACGCACACACACTTATACATTTATATA [CACACA_site7543],10.6 ± 0.18
3,TTTCTTTTTTAGAGGTGTACACGTAGGCCTCTTGGA [XGTACX_site4760],11.6 ± 1
4,TTAGATATTAATATATGTACATATTAATATATTTAC [XGTACX_site7119],11.1 ± 0.65
5,TTGATAGACACATGCACACATGCAATACTTTATTCA [CACACA_site3000],10.2 ± 0.18
6,TAGGTGTTAAAAAATACACACACAAAAAAAAAAAAA [CACACA_site7927],9.93 ± 0.45
7,GGAATATTATTTCAATGTACATTTTGAGATTAGAAT [XGTACX_site8187],10.8 ± 0.5
8,ATTATTATTTTACGTAGTACATATAATAAATATTTA [XGTACX_site8934],11.1 ± 0.85
9,TTATTTCTAATTCGTTGTACAATATATAATATATAT [XGTACX_site5861],11.3 ± 0.81
10,TATCCATATTTGTTCACACACACACGGATTTATATA [CACACA_site7649],10.2 ± 0.18
11,ACATTTTTGGTTTTAGTGCAATATGAATTATTTTAT,10.12 ± 0.078
12,TCTTCCATTTTTATTACACACATAAATATGAAATCG [CACACA_site3471],10.1 ± 0.23
13,CCTTTAAGCAAAAACACACACACATATATATATATA [CACACA_site348],10 ± 0.24
14,AAAGGTAAATGTAAATAAATAAATAATAAATATATA [GTGCAC_negctrl_site681],9.705 ± 0.007
15,AACAGAATAATACTAAATGAACGATTTCTCTTTATG [GTGCAC_negctrl_site376],9.65 ± 0.21
16,TGCAGTCTGGAGAAGAGTACACAGTATCTGGTAACA [XGTACX_site2037],11.4 ± 1.1
17,TATATATTCATATGTTGTACATAAATACAAATAAGA [XGTACX_site5602],11.1 ± 0.89
18,AAAAAAAAAAAGAAATGTACATGAATATTTTAAATG [XGTACX_site4069],11 ± 0.45
19,ATTAATATGAATAAAACACACATATATAATTTGTAA [CACACA_site1929],9.855 ± 0.021
20,TAACTTTTATCCTTAATTCATATATAAGATTAAATC [CACACA_negctrl_site669],9.9 ± 0.15
21,ATTTTTTTTTTTTTTTTTTATATGCTCTCCATGAGA [CACACA_negctrl_site1225],9.7 ± 0.2
22,AGGCAATATTATATATATATATATATATATATATAT [CACACA_negctrl_site826],9.91 ± 0.64
23,CATGCTACATCTTATTGTACTTATCTAATGTTAGTA [XGTACX_site1863],11.2 ± 0.73

row,Sequence,gcPBM binding intensity (ln)
1,AAAAAGGAGAAACACACACACACACCCATATATATA [CACACA_site905],10 ± 0.12
2,TTGTAAATTTACATTTGTACATAAATATATTAATAT [XGTACX_site3969],10.9 ± 0.47
3,TGTATGTTTGGGTGCACACATAAATATTATATATAG [CACACA_site3397],10.8 ± 0.71
4,ATATATATAAAACACACACACACATGGTTTAAAACT [CACACA_site4219],10.12 ± 0.071
5,TCTTTTTACACCTCTTACATAAAACAAAATAAGGGG [XGTACX_negctrl_site12],10.7 ± 0.38
6,TATACATGTTATGTACATCTAATCACACGTGCAATA [CACACA_negctrl_site1267],11.3 ± 0.79
7,TATTGTTATTAAAAATGTACATATAAATTTCTTATT [XGTACX_site1409],11.3 ± 0.79
8,AAAAATAAAAGGTGTGCACACAAAAATATATATATA [CACACA_site8507],10.7 ± 0.44
9,AATTTAAAAAATAACAGTACATAAAATATATACATA [XGTACX_site7917],10.8 ± 0.48
10,GTATGATGCATAAGAGTGCATAAGGATATTTCTTCA,9.965 ± 0.021
11,TAATATTAAATAAATAAAATATATAATATATATATA [XGTACX_negctrl_site49],9.47 ± 0.2
12,TAATATATAACGTGCACACACACATCTACGTATGAA [CACACA_site5080],10.5 ± 0.34
13,TGTGTATATTATATGTGTACATATCAATGTTTATAT [XGTACX_site1885],11.4 ± 0.89
14,TGGCATTAAAATTTAGTGCATATATCTTAGCATGGG,9.79 ± 0.014
15,AGATATGTTTTTAATTGTACATAAATACACAAATAT [XGTACX_site5981],11 ± 0.67
16,TGTAATAAATAGTACACACACACATATATATATATT [CACACA_site1388],11.4 ± 0.94
17,AAAGAATTATATAAGGTGCACGAATGTTTCTTTAAT,10.03 ± 0.028
18,ATATGTGTGTGTATTTGTACCCAATTTTTATATATA [XGTACX_site4948],11.3 ± 0.78
19,AAAAAAAAAAAAAAAAAAAAAATACATATATATATA [CACACA_negctrl_site290],10.8 ± 0.44
20,TGTTCTATTCTATTATTATTTACAAATTATAAATAA [GTGCAC_negctrl_site232],9.98 ± 0.18
